Test results published in PubChem BioAssay AID720708 (National Center for Advancing Translational Sciences (NCATS), 2013).
In all, about 360,000 compounds went through this assay and about 660 (0.18%) were called active. The inconclusive results got no clear call from the source; some entries with a clear call stand among them for comparison. Calls come from the whole dose curve; as a rule, active = well fitted inhibition curve with a large enough effect; inconclusive = small, poorly fitted or top-dose-only effect; inactive = no such curve, though single readings can be large or run the other way. Potencies of inconclusive entries are left out as doubtful fits.

target: Rap guanine nucleotide exchange factor 4 (Homo sapiens) (UniProt Q8WZA2); test: qHTS for Antagonist of cAMP-regulated guanine nucleotide exchange factor 2 (EPAC2): primary screen; conditions: EPAC2 GEF exchange of Rap1B-BODIPY-GDP, fluorescence; activity, negative = inhibition: at 114 µM (top of the series) unless noted; note: nearly all actives have a fitted effect of over 45% in size
% is set by controls: 0 for no effect and ±100 for the full control effect; potency is the fitted concentration of half-maximal effect; tags give direction and shape of the fitted curve.

Chain of UniProt Q8WZA2 (Q8WZA2 whole entry, looked up): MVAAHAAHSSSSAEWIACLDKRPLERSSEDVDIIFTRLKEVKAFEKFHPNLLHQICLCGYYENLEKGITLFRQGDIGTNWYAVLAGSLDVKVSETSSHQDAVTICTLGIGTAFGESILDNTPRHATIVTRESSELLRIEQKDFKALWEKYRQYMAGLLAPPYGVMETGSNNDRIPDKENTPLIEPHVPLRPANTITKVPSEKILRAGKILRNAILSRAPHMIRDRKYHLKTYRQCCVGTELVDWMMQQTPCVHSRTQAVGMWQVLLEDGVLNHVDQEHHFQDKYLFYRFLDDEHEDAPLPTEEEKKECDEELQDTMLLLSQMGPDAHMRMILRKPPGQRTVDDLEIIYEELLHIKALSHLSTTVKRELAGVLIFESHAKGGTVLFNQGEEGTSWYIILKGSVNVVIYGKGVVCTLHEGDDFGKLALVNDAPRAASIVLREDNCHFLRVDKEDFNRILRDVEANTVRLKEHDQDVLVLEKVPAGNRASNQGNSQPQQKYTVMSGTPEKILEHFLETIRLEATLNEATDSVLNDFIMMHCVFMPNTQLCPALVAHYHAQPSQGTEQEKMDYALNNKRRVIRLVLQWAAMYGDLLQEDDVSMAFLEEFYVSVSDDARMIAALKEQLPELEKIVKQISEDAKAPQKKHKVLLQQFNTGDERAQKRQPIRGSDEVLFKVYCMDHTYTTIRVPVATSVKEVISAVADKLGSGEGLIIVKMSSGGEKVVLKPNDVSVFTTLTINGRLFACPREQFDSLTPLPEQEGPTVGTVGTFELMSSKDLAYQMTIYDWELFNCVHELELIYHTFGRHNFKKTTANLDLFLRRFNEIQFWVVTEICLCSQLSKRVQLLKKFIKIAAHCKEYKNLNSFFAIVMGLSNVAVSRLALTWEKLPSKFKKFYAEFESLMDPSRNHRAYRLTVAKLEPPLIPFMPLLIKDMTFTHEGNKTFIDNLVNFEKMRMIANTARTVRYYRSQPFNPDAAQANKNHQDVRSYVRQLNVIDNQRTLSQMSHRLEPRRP

| Compound | Potency | activity, negative = inhibition |
| --- | --- | --- |
| Cc1ccc(C)c(N(CC(=O)NCc2ccccc2)C(=O)c2csnn2)c1 | inactive | – |
| C(#Cc1ccccc1)Cn1nnc2ccccc21 | inactive | – |
| COc1ccc(/C=C2/SC(=S)N(NS(=O)(=O)c3ccc(C)cc3)C2=O)cc1 | inconclusive [inhibitor, partial curve] | – |
| Cc1ccc2nc3sc(C(=O)N4CCCc5ccccc54)c(N)c3cc2c1 | inconclusive [inhibitor, single point] | – |
| O=C(COC(=O)c1ccc2ncsc2c1)NCc1ccccc1Cl | inactive | – |
| CC(=O)C(=Cc1ccccc1)c1ccccc1 | inconclusive [inhibitor, full curve] | – |
| CCc1ccccc1OCC(=O)NCC1COc2ccccc2O1 (stereo not given) | inconclusive [inhibitor, partial curve] | – |
| Cc1ccc(N2C(=O)c3ccccc3C2(O)c2ccccc2)cc1 (stereo not given) | inconclusive [inhibitor, partial curve] | – |
| CCOC(=O)C1=CCN(S(=O)(=O)c2ccccc2Br)C1c1ccc(Cl)c(Cl)c1 (stereo not given) | – | inconclusive: -13.5% [inhibitor] |
| COc1cccc(Nc2nc3ccccc3nc2-n2nc(C)cc2C)c1 | inconclusive [inhibitor, single point] | – |
| COc1ccc(NC(=O)c2nc(S(=O)(=O)Cc3cccc(C)c3)ncc2Cl)c(OC)c1 | inactive | – |
| NC(=O)CSc1nc2ccccc2c(=O)n1Cc1ccccc1 | inconclusive [inhibitor, partial curve] | – |
| CC(C)c1cccc(-c2csc(C(O)c3ccc(F)cc3)n2)c1 (stereo not given) | – | inconclusive: -8.15% [inhibitor] |
| COc1ccccc1CCC(=O)N(C)CC(=O)Nc1ccc(Cl)c(C(F)(F)F)c1 | inconclusive [inhibitor, full curve, poor fit] | – |
| O=C(COC(=O)c1cccc(Cl)c1Cl)NC1CCCCCC1 | inactive | – |
| C#CCN1c2ccccc2Sc2cccnc21 | inconclusive [inhibitor, full curve] | – |
| COc1ccc(Cl)cc1NC(=O)CN(C)Cc1ccc(OC)c(OC)c1 | inconclusive [inhibitor, single point] | – |
| Cc1cccc(CSc2cccc3cccnc23)c1 | inconclusive [inhibitor, single point] | – |
| C#CCOCCOCCOCCNc1nc(N2CCN(C(=O)[C@H](CC(N)=O)n3cc(C(N)[C@H](C)CC)nn3)CC2)nc(N2CCN(C(=O)[C@H](CC(N)=O)n3cc(C(N)[C@@H](C)CC)nn3)CC2)n1 (stereo not given in full) | inactive | – |
| CC(C)c1cc(Cn2c3ccccc3c(=O)n2C(C)Cn2cc(COc3ccccc3)nn2)on1 (stereo not given) | inactive | – |
